Data: PubChem BioAssay (NCI)
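How tested: cells in 96-well plates exposed to compound for 48 hours at five concentrations. GI50 is the concentration that inhibits growth by half. TGI is the concentration that stops growth completely.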

Tested on: NCI-H322M lung
Assay: DTP human tumour cell line panel, 48 h

**Q.** With COc1ccc(N2CCN(C(=O)c3ccc(C(F)(F)F)nc3Nc3cc(Cl)ccc3C)CC2)cc1 as the molecule, how does the GI50 read?
**A.** 10.8 µM

**Q.** What about the TGI of the same molecule?
**A.** 32.5 µM

**Q.** For O=C1O/C(=C\c2ccc(O)c(Br)c2)C(c2ccc(O)c(Cl)c2)=C1Br, which TGI is on record?
**A.** 44.5 µM

**Q.** With ClCCn1cnc2c(SCc3ccccc3Cl)ncnc21 as the molecule, how does the GI50 read?
**A.** 17.9 µM

**Q.** And the TGI?
**A.** > 100 µM

**Q.** How did the TGI turn out when C=C1CCc2ccccc2C1=O was run?
**A.** > 100 µM

**Q.** With CCOC(=O)/C=C1/SC(N2CCCCC2)C(=O)N1CC (stereo unspecified) as the molecule, how does the GI50 read?
**A.** > 100 µM

**Q.** What about the TGI of the same molecule?
**A.** > 100 µM

**Q.** For N#CC1=C(N)Oc2c(ccc3ccccc23)C1c1cccs1 (stereo unspecified), which GI50 is on record?
**A.** 0.0531 µM

**Q.** What about the TGI of the same molecule?
**A.** 20.1 µM

**Q.** COC(=O)C1=CN(CC2=CC(=O)C(C)=CC2=O)C=C(C(=O)OC)C1c1cc(OC)ccc1OC was tested. Which GI50 did it give?
**A.** 18.8 µM

**Q.** What about the TGI of the same molecule?
**A.** 40.3 µM

**Q.** Which TGI does the source give for NC1=NS(=O)(=O)Nc2nc(-c3ccc(Cl)cc3)[nH]c21 here?
**A.** > 100 µM

**Q.** How did the TGI turn out when COC1(OC)CC(CO)(CNc2nc(N)nc(Cl)c2C=O)C1 was run?
**A.** > 100 µM

**Q.** Cc1ccc(S(=O)(=O)N(CCN2C(=O)c3ccccc3C2=O)c2cc3c4c(c2)Oc2cc(N(CCN5C(=O)c6ccccc6C5=O)S(=O)(=O)c5ccc(C)cc5)cc5c2C4(C)c2c(cc(N(CCN4C(=O)c6ccccc6C4=O)S(=O)(=O)c4ccc(C)cc4)cc2O5)O3)cc1 was tested. Which TGI did it give?
**A.** > 100 µM

**Q.** Cc1ccc(S(=O)(=O)NC(C(=O)O)C(C)C)cc1 (stereo unspecified) was tested. Which TGI did it give?
**A.** > 100 µM

**Q.** What does the source list for CC(O)CCc1ccc(Oc2c3ccccc3nc3occc23)cc1 (stereo unspecified)?
**A.** GI50: 6.1 µM; TGI: 21.1 µM

**Q.** NCCCN1CCN(c2ccccc2)CC1 was tested. Which TGI did it give?
**A.** > 100 µM

**Q.** For COc1nc(NC2OCC(OC(C)=O)C(OC(C)=O)C2OC(C)=O)c(-c2csc(N)n2)c(=O)n1C (stereo unspecified), which TGI is on record?
**A.** > 100 µM

**Q.** With Cc1cc(O)c(/C=N/c2nc(-c3ccc([N+](=O)[O-])cc3)cs2)c(=O)o1 as the molecule, how does the TGI read?
**A.** > 100 µM

**Q.** How did the TGI turn out when COC(=O)CCc1ccc2c(c1)[C@H](C(=O)OC)[C@@H](c1ccc(O)cc1)O2 was run?
**A.** > 100 µM

**Q.** With CC1(C)CN=C(Nc2ccc(F)cc2)S1 as the molecule, how does the TGI read?
**A.** > 100 µM

**Q.** How did the GI50 turn out when CC(C)OC(=O)c1cc(NS(=O)(=O)c2ccc3ccccc3c2)cc(C(=O)OC(C)C)c1 was run?
**A.** 84.9 µM

**Q.** And the TGI?
**A.** > 100 µM

**Q.** Which GI50 does the source give for O=C(N/N=C(\CN1CCN(c2cc3[nH]cc(C(=O)O)c(=O)c3cc2F)CC1)c1ccc(Cl)cc1)c1ccncc1 here?
**A.** 25.4 µM

**Q.** And the TGI?
**A.** > 100 µM

**Q.** Which TGI does the source give for O=C(Nc1ccc(Cl)c(Cl)c1)C(=O)C(C(=O)c1ccccc1F)C1OC(=O)c2ccccc21 (stereo unspecified) here?
**A.** 70.6 µM

**Q.** CC[C@@]1(O)C(=O)OCc2c1cc1n(c2=O)Cc2c-1nc1ccccc1c2Cl was tested. Which TGI did it give?
**A.** 8.92 µM

**Q.** N#CC1(Cc2ccccc2[N+](=O)[O-])c2ccccc2C2C(N1C(=O)c1ccccc1)C2(Cl)Cl (stereo unspecified) was tested. Which TGI did it give?
**A.** > 100 µM

**Q.** How did the TGI turn out when NC1C(O)C(O)C(CO)OC1n1cc(F)c(=O)[nH]c1=O (stereo unspecified) was run?
**A.** > 100 µM

**Q.** Which TGI does the source give for COC(=O)C1=C(C)C(=O)[C@H]2C(C(=O)OC)CCCC[C@@H]12 (stereo partly specified) here?
**A.** > 100 µM

**Q.** CCOC(=O)/C(C#N)=C/c1ccc(SCc2ccco2)c([N+](=O)[O-])c1 was tested. Which TGI did it give?
**A.** > 100 µM

**Q.** How did the TGI turn out when COc1ccc(OC)c2[nH]c(Sc3c([N+](=O)[O-])ncn3C)nc12 was run?
**A.** 91.2 µM

**Q.** What does the source list for O=C(N/N=C/c1cc(Cl)cc(Cl)c1[O-])c1ccccc1O.O=C(N/N=C/c1cc(Cl)cc(Cl)c1[O-])c1ccccc1O.[Cl-].[Fe+3]?
**A.** GI50: 10.6 µM; TGI: 22.4 µM

**Q.** Which TGI does the source give for CCc1cccc(C)c1NC(=O)CC(=O)NNC(N)=S here?
**A.** > 100 µM

**Q.** How did the TGI turn out when C/C=C/[C@@H](C(=O)OC)N1C(=O)c2ccccc2[C@H]1O was run?
**A.** > 100 µM

**Q.** With CCCNc1[nH]c(C(=O)c2ccccc2)c(N)c1C(=S)Nc1ccccc1 as the molecule, how does the TGI read?
**A.** > 100 µM

**Q.** Which TGI does the source give for CCOC(=O)N1Cc2ccoc2C1 here?
**A.** > 100 µM

**Q.** Which TGI does the source give for COc1ccc(Oc2ccc3cc4c(cc3c2O)OCO4)c2cc(C)oc12 here?
**A.** > 100 µM

**Q.** Which TGI does the source give for CC1=NN(C(=O)c2ccc(Cl)cc2)C(=O)C1N=Nc1ccc(S(=O)(=O)Nc2ncccn2)cc1 (stereo unspecified) here?
**A.** > 100 µM

**Q.** Which TGI does the source give for CCN(CC)CCCNc1[nH]ncc2cc3c(nc4ccccc43)c(C)c12 here?
**A.** 17.8 µM

**Q.** With CCOP(=O)(OCC)/C(C#N)=C\c1ccc(OC(C)=O)cc1 as the molecule, how does the TGI read?
**A.** > 100 µM

**Q.** With CN1c2ccccc2NC(CC(=O)O)C2CC=CN21 (stereo unspecified) as the molecule, how does the TGI read?
**A.** > 100 µM

**Q.** Cc1nn(C(=O)c2ccccc2O)c2c1C(c1ccco1)SC(N)=N2 (stereo unspecified) was tested. Which TGI did it give?
**A.** > 10 µM

**Q.** With CC1(C)C2CCC13C(=O)C1OC3(C2)C2C(=O)N(c3ccccc3)C(=O)C12 (stereo unspecified) as the molecule, how does the TGI read?
**A.** > 100 µM

**Q.** Cc1cc(Cc2cc(Cc3cc(C)cc(C(C)(C)C)c3O)c(C)cc2C)c(O)c(C(C)(C)C)c1 was tested. Which TGI did it give?
**A.** 32.3 µM

**Q.** For CCOC(=O)c1c(SCc2ccccc2)nc2c3ccccc3ccn12, which TGI is on record?
**A.** > 100 µM

**Q.** How did the TGI turn out when CC(C)c1ccc(/C=C2\N=C(c3ccc([N+](=O)[O-])cc3)OC2=O)cc1 was run?
**A.** > 100 µM

**Q.** Which TGI does the source give for COC(=O)C#Cc1cccc(OC)c1OC here?
**A.** > 100 µM

**Q.** Which TGI does the source give for S=C1N=C2C(=N1)n1c3c(c4ccccc41)CCCC23 (stereo unspecified) here?
**A.** > 100 µM

**Q.** For COc1ccc(CCCNC(=O)Cc2cc(OC)c(OC)cc2CO)cc1OC, which TGI is on record?
**A.** > 100 µM

**Q.** For O=CN/N=C/c1ccc(Cl)c([N+](=O)[O-])c1, which GI50 is on record?
**A.** 0.398 µM

**Q.** And the TGI?
**A.** > 100 µM

**Q.** With C=C1C(=O)O[C@H]2[C@H]1CC/C(COC(=O)CCSSCCC(=O)OC/C1=C/CC[C@@]3(C)O[C@H]3[C@H]3OC(=O)C(=C)[C@@H]3CC1)=C\CC[C@@]1(C)O[C@@H]21 as the molecule, how does the GI50 read?
**A.** 2.11 µM

**Q.** What about the TGI of the same molecule?
**A.** 5.8 µM

**Q.** For CC(C)(C)c1cc(OCc2nnc3sc(-c4ccc(Cl)cc4)nn23)c(Cl)cc1OCc1nnc2sc(-c3ccc(Cl)cc3)nn12, which TGI is on record?
**A.** > 100 µM

**Q.** With CC(C)(CN1CCCCC1)C(=O)/C=C/c1ccc(Cl)c(Cl)c1 as the molecule, how does the TGI read?
**A.** > 100 µM

**Q.** O=C(O)CSc1ccc(N=C=S)cc1 was tested. Which TGI did it give?
**A.** > 100 µM

**Q.** For O=C1C(=Cc2cccs2)C(=O)N(CCc2ccccc2)S(=O)(=O)N1CCc1ccccc1, which TGI is on record?
**A.** > 50 µM
